# In all, about 2,900 compounds were measured (“IRF Lucia reporter activity, fold change vs agonist alone”: median about 0.9, highest 2% from about 2.8 on). The list shows a part of the results.
# Legend:
# [1] = system: RAW-Dual; experiment: IRF Lucia reporter activity, fold change vs agonist alone; cytotoxicity flag (confluency mask): not cytotoxic; higher = enhanced IRF activity
# Outline: (§1)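 Supernatant from RAW-Dual macrophages was read after 20 hours for IRF by QuantiLuc luminescence and for NF-κB by QuantiBlue absorbance at 620 nm. The cells (50,000 cells/well in DMEM, 384-well plates, 37 °C, 5% CO2) had received 50 nL of library stock by pin tool and, 1 h later, a PRR agonist. Reporter activity is expressed relative to agonist-alone wells as fold change, and wells were flagged cytotoxic if IncuCyte confluency was under 70% of agonist controls in both mask sets.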
# [2] = system: RAW-Dual; experiment: IRF Lucia reporter activity, fold change vs agonist alone; higher = enhanced IRF activity; conditions: agonist: MPLA (TLR4) […]
# Outline: as §1
# [3] = system: RAW-Dual; experiment: IRF Lucia reporter activity, fold change vs agonist alone; cytotoxicity flag (confluency mask): cytotoxic (confluency <70% of control); higher = enhanced IRF activity
# Outline: as §1
# [4] = agonist: 3'3'-cGAMP (STING) 10 ug/mL
# [5] = library stock concentration (final ~1000-fold dilution): 10 mM, cytotoxicity flag (confluency mask): not cytotoxic
compound,measurement,setting,value
N=C(N)NCCN1CCCCCCC1.O=S(=O)(O)O (library stock concentration (final ~1000-fold dilution): 10 mM water),IRF Lucia reporter activity,[1]; [4],1.05
same,IRF Lucia reporter activity,[1]; agonist: LPS (TLR4) 0.1 ug/mL,0.869
N=C(N)NCCN1CCCCCCC1.O=S(=O)(O)O,IRF Lucia reporter activity,"[2]; library stock concentration (final ~1000-fold dilution): 10 mM water, cytotoxicity flag (confluency mask): not cytotoxic",1.32
CCc1nc(C(N)=O)c(Nc2ccc(N3CCC(N4CCN(C)CC4)CC3)c(OC)c2)nc1NC1CCOCC1 (library stock concentration (final ~1000-fold dilution): 10 mM),IRF Lucia reporter activity,[1]; [4],0.047
same,IRF Lucia reporter activity,[1]; agonist: LPS (TLR4) 0.1 ug/mL,0.233
CNS(=O)(=O)Nc1nccc(Cc2c(C)c3ccc(Oc4ncccn4)cc3oc2=O)c1F (library stock concentration (final ~1000-fold dilution): 10 mM),IRF Lucia reporter activity,[1]; [4],0.63
same,IRF Lucia reporter activity,[1]; agonist: LPS (TLR4) 0.1 ug/mL,2.41
CNS(=O)(=O)Nc1nccc(Cc2c(C)c3ccc(Oc4ncccn4)cc3oc2=O)c1F,IRF Lucia reporter activity,[2]; [5],2.22
CC1(C(=O)O)CCC2(C)CCC3(C)C(=CC(=O)C4C5(C)CCC(OC6OC(C(=O)O)C(O)C(O)C6OC6OC(C(=O)O)C(O)C(O)C6O)C(C)(C)C5CCC43C)C2C1.N.N (stereo not given),IRF Lucia reporter activity,[2]; [5],0.958
CC1(C(=O)O)CCC2(C)CCC3(C)C(=CC(=O)C4C5(C)CCC(OC6OC(C(=O)O)C(O)C(O)C6OC6OC(C(=O)O)C(O)C(O)C6O)C(C)(C)C5CCC43C)C2C1.N.N (stereo not given) (library stock concentration (final ~1000-fold dilution): 10 mM),IRF Lucia reporter activity,[1]; [4],0.931
same,IRF Lucia reporter activity,[1]; agonist: LPS (TLR4) 0.1 ug/mL,0.653
COc1ccc(CC(=O)Nc2nc3c(s2)CCc2ccccc2-3)cc1OC (library stock concentration (final ~1000-fold dilution): 10 mM),IRF Lucia reporter activity,[1]; [4],0.989
same,IRF Lucia reporter activity,[1]; agonist: LPS (TLR4) 0.1 ug/mL,0.961
Cl.OC1CCC(Nc2ncc3nc(Nc4c(F)cc(F)cc4F)n(C4CCOC4)c3n2)CC1 (stereo not given) (library stock concentration (final ~1000-fold dilution): 10 mM),IRF Lucia reporter activity,[1]; [4],0.659
same,IRF Lucia reporter activity,[1]; agonist: LPS (TLR4) 0.1 ug/mL,0.884
O=C1c2c(O)cc(O)cc2OC(c2ccc(O)c(O)c2)C1O (stereo not given),IRF Lucia reporter activity,[2]; [5],1.04
O=C1c2c(O)cc(O)cc2OC(c2ccc(O)c(O)c2)C1O (stereo not given) (library stock concentration (final ~1000-fold dilution): 10 mM),IRF Lucia reporter activity,[1]; [4],0.976
same,IRF Lucia reporter activity,[1]; agonist: LPS (TLR4) 0.1 ug/mL,1.01
FC(F)(F)c1ccc(/C=C/c2nc(COc3ccc(CCCCn4ccnn4)cc3)co2)cc1 (library stock concentration (final ~1000-fold dilution): 10 mM),IRF Lucia reporter activity,[1]; [4],1.07
same,IRF Lucia reporter activity,[1]; agonist: LPS (TLR4) 0.1 ug/mL,1.43
FC(F)(F)c1ccc(/C=C/c2nc(COc3ccc(CCCCn4ccnn4)cc3)co2)cc1,IRF Lucia reporter activity,[2]; [5],1.34
COc1cc2c(cc1OC)C1C(=O)c3ccc4c(c3OC1CO2)C=CC(C)(C)O4 (stereo not given) (library stock concentration (final ~1000-fold dilution): 10 mM),IRF Lucia reporter activity,[1]; [4],0.496
same,IRF Lucia reporter activity,[1]; agonist: LPS (TLR4) 0.1 ug/mL,1.51
C#CCN(C)CCCOc1ccc(Cl)cc1Cl.Cl,IRF Lucia reporter activity,[2]; [5],1.12
C#CCN(C)CCCOc1ccc(Cl)cc1Cl.Cl (library stock concentration (final ~1000-fold dilution): 10 mM),IRF Lucia reporter activity,[1]; [4],1.06
same,IRF Lucia reporter activity,[1]; agonist: LPS (TLR4) 0.1 ug/mL,1.19
Cc1cnc(NC(=O)Nc2cc(Br)c(C)cc2OCC2CNCCO2)cn1 (stereo not given),IRF Lucia reporter activity,[2]; [5],1.15
Cc1cnc(NC(=O)Nc2cc(Br)c(C)cc2OCC2CNCCO2)cn1 (stereo not given) (library stock concentration (final ~1000-fold dilution): 10 mM),IRF Lucia reporter activity,[1]; [4],1.01
same,IRF Lucia reporter activity,[1]; agonist: LPS (TLR4) 0.1 ug/mL,0.821
CC(Oc1cc(-c2cnn(C3CCNCC3)c2)cnc1N)c1c(Cl)ccc(F)c1Cl (stereo not given),IRF Lucia reporter activity,"[2]; library stock concentration (final ~1000-fold dilution): 10 mM, cytotoxicity flag (confluency mask): cytotoxic (confluency <70% of control)",0.0653
same,IRF Lucia reporter activity,[2]; [5],0.0291
CC(Oc1cc(-c2cnn(C3CCNCC3)c2)cnc1N)c1c(Cl)ccc(F)c1Cl (stereo not given) (library stock concentration (final ~1000-fold dilution): 10 mM),IRF Lucia reporter activity,[1]; [4],0.023
same,IRF Lucia reporter activity,[1]; agonist: LPS (TLR4) 0.1 ug/mL,0.0245
same,IRF Lucia reporter activity,[3]; [4],0.13
same,IRF Lucia reporter activity,[3]; agonist: LPS (TLR4) 0.1 ug/mL,0.129
O=C(CCCCCCC(=O)N/N=C/c1ccc(N(c2ccccc2)c2ccccc2)cc1)NO (library stock concentration (final ~1000-fold dilution): 10 mM),IRF Lucia reporter activity,[3]; [4],0.0199
same,IRF Lucia reporter activity,[3]; agonist: LPS (TLR4) 0.1 ug/mL,0.533
CC(c1cc2ccccc2s1)N(O)C(N)=O (stereo not given) (library stock concentration (final ~1000-fold dilution): 10 mM),IRF Lucia reporter activity,[1]; [4],1.02
same,IRF Lucia reporter activity,[1]; agonist: LPS (TLR4) 0.1 ug/mL,1.09
CC(c1cc2ccccc2s1)N(O)C(N)=O (stereo not given),IRF Lucia reporter activity,[2]; [5],0.792
O=C(/C=C/c1ccc(O)c(O)c1/C=C/c1ccc(O)c(O)c1)OC(Cc1ccc(O)c(O)c1)C(=O)O (stereo not given) (library stock concentration (final ~1000-fold dilution): 10 mM),IRF Lucia reporter activity,[1]; [4],0.598
same,IRF Lucia reporter activity,[1]; agonist: LPS (TLR4) 0.1 ug/mL,0.896
CC1=C(C(=O)OC2CCCCC2)C(c2ccc([N+](=O)[O-])cc2)C2=C(CC(C)(C)CC2=O)N1 (stereo not given) (library stock concentration (final ~1000-fold dilution): 10 mM),IRF Lucia reporter activity,[1]; [4],0.0154
same,IRF Lucia reporter activity,[1]; agonist: LPS (TLR4) 0.1 ug/mL,0.185
CC1=C(C(=O)OC2CCCCC2)C(c2ccc([N+](=O)[O-])cc2)C2=C(CC(C)(C)CC2=O)N1 (stereo not given),IRF Lucia reporter activity,[2]; [5],0.232

# From the supplement of paper PMC10037445
